This passage reports z-score results from PubChem BioAssay AID488969 (Vanderbilt High Throughput Screening Facility, 2010).

The full ranking holds about 110,000 compounds; the median of “z-score” is about -0.1, and the highest 2% start at about 2. The list shows a part of the results. Activity calls are given as the source filed them.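 How the source made its calls: active means z-score in the third read window above 3 or below -3; inactive means the rest.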

The target in this experiment is Metabotropic glutamate receptor 8 (Rattus norvegicus) (UniProt P70579). Kind of experiment: rat mGluR8 modulators via GIRK flux, primary screen, cell-based, thallium flux, HTS (AID 488969). The conditions noted are these: HEK293 rat mGluR8, GIRK (G protein-gated inwardly rectifying potassium channel) thallium flux, FluoZin2; at 10 µM; stronger effect = higher value; submaximal glutamate (EC20) added with thallium.
Chain of UniProt P70579 (P70579 whole entry, looked up): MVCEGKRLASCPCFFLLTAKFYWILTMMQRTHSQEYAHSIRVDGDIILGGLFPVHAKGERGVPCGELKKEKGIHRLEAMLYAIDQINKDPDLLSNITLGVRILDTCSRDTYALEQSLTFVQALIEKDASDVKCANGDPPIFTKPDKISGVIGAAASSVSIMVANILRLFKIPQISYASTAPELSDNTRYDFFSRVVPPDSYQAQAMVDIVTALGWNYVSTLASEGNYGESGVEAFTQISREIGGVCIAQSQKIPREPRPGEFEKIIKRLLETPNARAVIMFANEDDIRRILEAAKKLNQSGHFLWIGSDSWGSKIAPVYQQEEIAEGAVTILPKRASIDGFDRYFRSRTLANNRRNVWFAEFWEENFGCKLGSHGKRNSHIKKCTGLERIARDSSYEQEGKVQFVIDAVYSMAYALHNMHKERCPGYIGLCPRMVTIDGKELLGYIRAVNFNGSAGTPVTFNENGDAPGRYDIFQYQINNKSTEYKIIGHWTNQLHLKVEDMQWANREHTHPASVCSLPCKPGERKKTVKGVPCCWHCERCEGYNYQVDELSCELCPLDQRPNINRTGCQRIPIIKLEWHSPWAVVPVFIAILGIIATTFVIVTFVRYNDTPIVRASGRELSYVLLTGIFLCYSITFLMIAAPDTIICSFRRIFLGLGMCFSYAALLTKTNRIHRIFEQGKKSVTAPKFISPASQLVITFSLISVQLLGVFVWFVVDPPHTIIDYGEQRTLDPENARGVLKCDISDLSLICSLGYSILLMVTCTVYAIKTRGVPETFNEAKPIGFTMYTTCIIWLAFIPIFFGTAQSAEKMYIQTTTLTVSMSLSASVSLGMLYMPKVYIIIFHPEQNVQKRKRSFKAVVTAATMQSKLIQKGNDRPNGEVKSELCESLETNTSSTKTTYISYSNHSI
Take `COc1cc(C(=O)Nc2ccc(-n3cnnn3)c(C)c2)cc(OC)c1OC`: the z-score is 0.356. The value for `C=CCN(C(=O)CNC(=O)c1ccco1)C(C(=O)NC1CCCCC1)c1ccc(OC)cc1` (configuration not stated) was -0.131; that for `O=C(CN1CCCN(Cc2ccc(F)cc2Cl)C1=O)NC1CCCCCCC1` was 0.44. The value for `COc1ccccc1NC(=O)C(CC(C)C)NC(=O)C1CCCCC1` (configuration not stated) was -1.02; that for `Cc1ccc(C)c(N2CCN(C(=O)c3cc4ccccc4oc3=O)CC2)c1` was -0.295; that for `COc1ccc(Br)cc1C(=O)Nc1cc(C)cc(C)c1` was 0.81. Next, `O=C(COc1ccc(S(=O)(=O)N2CCCC2)cc1Cl)N1CCN(c2ccccc2)CC1`: -0.134.

On to `COc1ccc(CCN2C(=O)c3cccc4c(C(=O)N5CCCCC5)ccc(c34)C2=O)cc1OC`, for which the z-score is -0.211. `CCn1c(=N)n(CC(=O)c2ccc(OC)cc2)c2ccccc21` gave a z-score of -0.117. Next, `CC(C)OCCCNC(=O)C1CCN(S(=O)(=O)N2CCCCC2)CC1`: 1.03; `COc1ccc(C2c3c(-c4cc(Cl)c(C)cc4O)n[nH]c3C(=O)N2Cc2cccnc2)cc1OC` (configuration not stated): 0.413; `CCN(CC)c1nc2nonc2nc1N(CC)CC`: 2.53. Turning to `CC(C)(C)OC(=O)N[C@@H](Cc1ccccc1)c1nnc(S(=O)(=O)Cc2cccc(F)c2)o1`, the z-score was 0.242. Consider `Cc1ccc2c(c1)NC(=O)C(CC(=O)Nc1ccc(CN3CCC(C)CC3)cc1)O2` (configuration not stated), for which the z-score was found to be 0.00115. The value for `Cc1nc(CC(=O)N2CCN(c3cccc(C)c3C)CC2)cs1` was -0.0923; that for `c1ccc(Cc2nnc3sc(C4COc5ccccc5O4)nn23)cc1` (configuration not stated) was -0.102. `COc1ccc(CCNC(=O)C2CCN(S(=O)(=O)c3ccc(-n4cnnn4)cc3)CC2)cc1OC` returned a z-score of -0.441. Next, `CCOc1ccc(NC(=O)N2CCN(CC)CC2)cc1`: 0.579.

Turning to `CCCc1nn(C)c(C(=O)Nc2ccc3ccccc3c2)c1Cl`, the z-score amounted to 0.0433. Next, `O=C(COc1ccc(Cl)cc1Br)NNC(=O)C(=O)N1CCCCC1`: 0.437. The value for `CC(C)CC(=O)NS(=O)(=O)c1ccc(N)cc1` was 0.0965; that for `Cc1cc(C)c(C)c(OCC(=O)O/N=C(\N)c2ccccn2)c1` was 0.0182; that for `C/C(CC(=O)NC1CCCC1)=N\NC(=O)Cc1cccs1` was -0.189. Next, `C=CCN(CC=C)C(=O)CN1C(=O)c2ccccc2C1=O`: 0.985.

`CCn1nnc(NC(=O)c2ccc(-c3ccc(Cl)cc3)o2)n1`: the z-score is -0.473. `Cn1nc(-c2ccc(N3CCOCC3)c(NS(=O)(=O)c3ccc(Cl)cc3)c2)c2ccccc2c1=O` gave a z-score of -0.174. On to `Cc1ccc(NC(=O)N/C=C/c2ccco2)cc1`, for which the z-score is -0.393. The value for `C=CCn1c(C)cc(C(=O)CSc2nnc3c(Cl)cc(Cl)cn23)c1C` was 0.0823; that for `c1ccc(OCCOc2cccc3cccnc23)cc1` was -0.0884.

Compound `CN(CCNC(=O)Cn1c(=O)sc2ccccc21)Cc1ccccc1` displayed a z-score of 0.164.

Turning to `COC(=O)c1c(/N=C/NOCc2ccc(Cl)cc2)sc2c1CCN(c1ncc(C(F)(F)F)cc1Cl)C2`, the z-score turned out to be 0.547. For the compound `O=c1[nH]c(CSc2nc3ccccc3[nH]2)nc2c1cnn2-c1ccccc1`, the z-score is -0.584.

The compound `Cc1cc(C(=O)N/N=C/c2ccc(C)o2)c2ccccc2n1` gave a z-score of -0.137.

Turning to `COc1ccc(CCN2C(=O)c3ccccc3C2(O)c2ncc[nH]2)cc1OC` (configuration not stated), the z-score came out at 0.0345. `COc1ccc(C)cc1NC(=O)C(=O)NCc1ccncc1` registered a z-score of -0.183.

`CN(CC(=O)N1CCN(c2ccccn2)CC1)S(=O)(=O)c1ccc2ccccc2c1` displayed a z-score of -0.601. The value for `N#Cc1ccc(-c2ccc(F)cc2)nc1Oc1ccc(Cl)c(Cl)c1` was 0.519; that for `CC(C)NS(=O)(=O)c1ccc(N2C(=O)c3ccccc3C2=O)cc1` was -0.144. The value for `CCN(c1c(C)n(C)n(-c2ccccc2)c1=O)S(C)(=O)=O` was 0.17. Next, `CN(C)c1ccc(/C=N\Nc2nc(-c3ccccc3)cc(=O)[nH]2)cc1`: -0.138; `CCN(CC)CCN1C(=O)c2oc3ccccc3c(=O)c2C1c1ccc(C)cc1` (configuration not stated): active: 8.12.

In the case of `O=C(CCC(=O)c1ccc(F)cc1)Nc1ccccc1Cl`, the z-score amounted to 0.266. The value for `O=C(Nc1ccc(N2CCOCC2)c(Cl)c1)c1cccnc1Cl` was -0.032. Next, `Cc1ccccc1S(=O)(=O)NC1=NCCCCC1`: -0.463; `CC(CO)N1CCS(=O)(=O)CC1` (configuration not stated): 0.035. `COc1cc(C(=O)Nc2ccccc2-c2nnn(CC(N)=O)n2)cc(OC)c1OC`: the z-score turned out to be 0.00311. Next, `O=C(O)C1SCCN1S(=O)(=O)c1ccc2ccccc2c1` (configuration not stated): 0.133; `COc1ccc(F)cc1S(=O)(=O)NC1CC(C)(C)NC(C)(C)C1`: 0.0814. Next, `C=CCOc1ccc(C2NC(=O)NC(C)=C2C(=O)OC)cc1` (configuration not stated): -0.975; `O=C(c1n[nH]c(=O)c2ccccc12)N1CCN(c2ccccc2)CC1`: -0.038.

In turn, `CCC(=O)N/C=C/n1cnc2cc(C(F)(F)F)ccc21` showed a z-score of 0.129. The value for `Fc1cccc(Cl)c1Cc1noc(/C=C/c2ccccc2)n1` was -0.138; that for `O=C(Nc1ccccc1F)c1ccccc1-c1ccc(C(F)(F)F)cc1` was -0.0848; that for `CCOc1ccc(N=Nc2c(=O)[nH]n3c(C)cc(C)nc23)cc1` was -0.16. For the compound `CCCn1nnc2sc3c(c2c1=O)CCC(C)C3` (configuration not stated), the z-score is -0.485.

The compound `Cc1nn(Cc2c(F)c(F)c(F)c(F)c2F)c(C)c1NC(=O)c1c(-c2ccccc2)nn(-c2ccccc2)c1C` returned a z-score of -0.01. For `CCOC(=O)N1CCN(C(=O)CN(C)S(=O)(=O)c2ccc(OC)c(OC)c2)CC1`, the z-score is -0.186. Next, `O=C(NCCc1ccncc1)Nc1cccc(Cl)c1`: 0.145; `Cc1ccc2oc(-c3ccc(C)c(NC(=O)Cc4cccs4)c3)nc2c1`: 0.0074. Next, `CC(=C/c1ccccc1)/C=N/n1cnnc1`: -0.0158. `CCc1nnc(NC(=O)C2CC(=O)N(CCc3ccccc3)C2)s1` (configuration not stated) showed a z-score of 0.309. Next, `Cc1cccc(OC(=O)C2C(c3ccccc3)C(C(=O)O)C2c2ccccc2)c1` (configuration not stated): -0.501. The value for `CC(C)OC(=O)CCC1(C(=O)O)CCC(=O)NC1` (configuration not stated) was -0.298; that for `COc1cc(CC(=O)OC2CCOC2=O)cc(OC)c1OC` (configuration not stated) was -0.158. The value for `COCCNC(=O)C1CC(=O)N(CCc2ccccc2)C1` (configuration not stated) was -1.34; that for `COc1cc(C(=O)N2CCCC(c3nc(-c4cccs4)no3)C2)cc(OC)c1OC` (configuration not stated) was -0.12.

In turn, `COCCNC(=O)C(C)Oc1ccc(Cl)cc1Cl` (configuration not stated) showed a z-score of 0.227. Next, `C/C=C/C=[N+](\[O-])C(C)/C(=N/O)c1ccc(F)cc1` (configuration not stated): -0.52; `COc1ccc(OC)c(NC(=O)CSc2nnc(CCCO)n2-c2ccccc2)c1`: -0.00479; `O=C1CCC(C(=O)NC2(C(=O)NC3CCCCC3)CCCCC2)N1` (configuration not stated): -0.0874. As for `CCOC(=O)c1oc2c(c1C)C(=O)CCC2`, the z-score is -0.0495. The value for `O=C(N/N=C\C=C\c1ccc2c(c1)OCO2)C1COc2cc3ccccc3cc2O1` (configuration not stated) was -0.307; that for `Cc1cc(C)n2nc(C(=O)Nc3ccc4c(c3)OCO4)nc2n1` was -0.107.

`O=C(Nc1cccc(S(=O)(=O)NCc2ccco2)c1)c1cc(-c2ccccc2)nc2ccccc12` registered a z-score of 0.0964. Next, `CCCc1cc(=O)[nH]c(SCc2nc3ccc([N+](=O)[O-])cc3[nH]2)n1`: -0.388; `COC(=O)c1scc(C)c1NC(=O)C1CCCCC1`: -0.231; `Cc1ccsc1C(=O)NCCC(c1ccccc1)c1ccccc1`: -0.265. Consider `COc1ccc(S(=O)(=O)NCCc2csc(-c3cccnc3)n2)cc1`, for which the z-score was -0.0463. Next, `O=C(O)CCCCCCCCCC(=O)c1cccs1`: 0.13; `c1ccc(-n2ncc3c(N4CCN(CCOc5cccc6ccccc56)CC4)ncnc32)cc1`: -0.133; `Cc1ccsc1C1Nc2ccc3ncccc3c2C2=C1C(=O)CC(C)(C)C2` (configuration not stated): -0.697. The compound `Cc1ccc(NC2=NC3(CCCCC3)N=C(N)N2)c(C)c1` returned a z-score of 0.379. The compound `Cc1csc(NC(=O)C2CCCCC2C(=O)O)n1` (configuration not stated) yielded a z-score of -0.149.

`Cc1ccn2c(Nc3ccc4c(c3)OCO4)c(-c3ccccn3)nc2c1` came in with a z-score of -0.456. The value for `CCOC(=O)CSc1nc2sc(C)c(C)c2c(=O)n1C` was -1.17; that for `COCCCN(C)C1CCN(C(=O)Nc2ccc(F)cc2)CC1` was 0.711.

Take `COc1ccc(Cl)cc1N(C)C(=O)CCNC(=O)Cn1cnc2ccccc2c1=O`: the z-score worked out at 0.258. Next, `Oc1ccc2ccccc2c1/C=N/c1nc2c(s1)CCCC2`: 0.0773; `Cc1cc(NC(=O)CSc2nc(-c3ccc(F)cc3)cs2)no1`: 0.222; `COc1cccc(C2C(C#N)=C(C)NC3=C2C(=O)CC(C)(C)C3)c1` (configuration not stated): -0.45.

As to `O=C(NNC1CC(=O)N(c2cccc(Cl)c2)C1=O)c1cccs1` (configuration not stated), the z-score is 0.00448. Next, `CCn1c(SCC(=O)N2CCCC2)nnc1-c1ccc(N)cc1`: 0.183.

Take `CCn1c2ccccc2c2cc(NC(=O)COc3ccc(OC)cc3)ccc21`: the z-score is -0.0603.

As for `Cc1ccc2c(c1)NC(=O)CC(c1ccccc1)=N2`, the z-score is active: 8.23. The value for `Cc1ccc(SCc2ccc(C(=O)Nc3cccc([N+](=O)[O-])c3)cc2)cc1` was -0.0473. The compound `COc1ccc(OC2OC3COC(C)(C)OC3C(O)C2NC(C)=O)cc1` (configuration not stated) yielded a z-score of -0.217. Next, `CCn1cc(C(=O)N2CCc3ccccc32)c(=O)c2cc(S(=O)(=O)N3CCOCC3)ccc21`: -0.699; `CCOC(=O)c1c(NC(=O)c2cccs2)sc(C)c1C`: 0.154; `O=C(N1CCCC1)C12CC3CC(CC(C3)C1)C2`: -0.391. Next, `CCCCC(=O)Nc1nn(CCC)c2nc3ccccc3cc12`: -1.22; `O=C(CCC1N=C2c3ccccc3N=C(SCc3ccc(F)cc3)N2C1=O)NCc1ccco1` (configuration not stated): -0.0995. Next, `COc1ccc([N+](=O)[O-])cc1NC(=O)Cc1ccc(Cl)cc1`: -0.271; `Cc1ccc(SCC(=O)Nc2cccc(-c3nnc(-c4ccco4)o3)c2)cc1`: -0.215. Take `Cc1nn(C(=O)c2ccco2)c(C)c1Sc1ccccc1`: the z-score was -0.328.

Take `COc1ccc(Cl)cc1C(=O)NCC#N`: the z-score is -0.266. The compound `COc1cc(CNCC(C)C)c(Br)cc1OCC(=O)NCc1ccccc1` came in with a z-score of 0.232. Next, `COCCn1c(Sc2ccccc2)nc2c1c(=O)[nH]c(=O)n2C`: -1.07; `Cn1c(=O)n(CCCOc2ccc(Br)cc2)c2ccccc21`: 0.384. The value for `COc1ccc(Oc2ccccc2/C=C/C(=O)O)cc1` was 0.219; that for `COc1ccc(C(=O)CN2CC(C)SC2=Nc2ccc(Cl)cc2)cc1` (configuration not stated) was -0.183. `COc1ccccc1OCc1ccc(C(=O)n2nc(C)c(Cl)c2C)o1` returned a z-score of -0.181.

In turn, `CN1C(=O)NC(c2ccccc2)C2=C1CN(c1ccc3ccccc3c1)C2=O` (configuration not stated) yielded a z-score of -0.18.
